The chains are these.
B1: GPR68, Q15743 (parent)
chain: MGNITADNSSMSCTIDHTIHQTLAPVVYVTVLVVGFPANCLSLYFGYLQIKARNELGVYLCNLTVADLFYICSLPFWLQYVLQHDNWSHGDLSCQVCGILLYENIYISVGFLCCISVDRYLAVAHPFRFHQFRTLKAAVGVSVVIWAKELLTSIYFLMHEEVIEDENQHRVCFEHYPIQAWQRAINYYRFLVGFLFPICLLLASYQGILRAVRRSHGTQKSRKDQIQRLVLSTVVIFLACFLPYHVLLLVRSVWEASCDFAKGVFNAYHFSLLLTSFNCVADPVLYCFVSETTHRDLARLRGACLAFLTCSRTGRAREAYPLGAPEASGKSGAQGEEPELLTKLHPAFQTPNSPGSGGFPTGRLA

In data set [1] the parent is B1. Put plainly: cAMP reporter score (Enrich2 score, wild type = 0); higher = more signal; HEK293T, FACS bins.
In data set [2] the parent is B1. In words: surface expression score (Enrich2 score, wild type = 0); higher = more signal; HEK293T, FACS bins.

Scores whose standard error is large were omitted. Not listed are two conditions whose scores span a narrow range. Names with del lack the residues named; names with ins carry added residues between the positions named. For some assays here: The data file names ogerin without a concentration.

As to L248R, the cAMP reporter score is -1.64 in data set [1] (pH 5.5); -0.717 in data set [1] (pH 6); -1.74 in data set [1] (pH 6, modulator: ogerin); -1.11 in data set [1] (pH 6.5, modulator: ogerin). In data set [2], the surface expression score is -2.27.
On the same counts, the results for L248V are -0.304, -1.39, -0.077, -0.984 and -0.687.
On the same counts, the results for L248M are 0.163, 0.422, 0.02, -0.074 and -0.255.
On the same counts, the results for L248Y are -0.863, -0.596, -0.92, -0.591 and -2.09.
In the case of L248K, the cAMP reporter score in data set [1] (pH 5.5) is -0.57; in data set [1] (pH 6) it was -0.447; in data set [1] (pH 6, modulator: ogerin) it was -1.6; in data set [1] (pH 6.5, modulator: ogerin) it was -1.15. In data set [2], the surface expression score is -2.04.
The matching figures for L248N: 0.587, -0.119, -0.483, -0.05 and 0.173.
On the same counts, the results for L248T are -1.28, -0.79, -1.29, -1.57 and -1.5.
The matching figures for L248S: -0.016, -0.811, -0.991, -0.878 and 0.619.
Turning to L248I, the cAMP reporter score came to 0.94 in data set [1] (pH 5.5); 1.52 in data set [1] (pH 6); 0.722 in data set [1] (pH 6, modulator: ogerin); 1.23 in data set [1] (pH 6.5, modulator: ogerin). Moreover, the surface expression score in data set [2] came out at 0.215.
In the case of L248Q, the cAMP reporter score was 1.05 in data set [1] (pH 5.5); -0.385 in data set [1] (pH 6); 0.397 in data set [1] (pH 6, modulator: ogerin); -0.383 in data set [1] (pH 6.5, modulator: ogerin).
Regarding L248W, the cAMP reporter score is -0.942 in data set [1] (pH 5.5); -0.418 in data set [1] (pH 6); -1.5 in data set [1] (pH 6, modulator: ogerin); -1.31 in data set [1] (pH 6.5, modulator: ogerin). Further, the surface expression score in data set [2] is -1.65.
For L248P, the cAMP reporter score in data set [1] (pH 5.5) is -1.85; in data set [1] (pH 6), -1.69; in data set [1] (pH 6, modulator: ogerin), -2.74; in data set [1] (pH 6.5, modulator: ogerin) it was -1.74. Also, in data set [2], the surface expression score is -2.57.
On the same counts, the results for S252del are 1.49, 7.08, 1.84, 6.03 and -1.49.
V250_R251insG: in data set [1] (pH 5.5), the cAMP reporter score was -0.662. For the same variant, the surface expression score in data set [2] was -1.64.
Regarding S252_V253insGSG, the cAMP reporter score was -1.59 in data set [1] (pH 5.5); -1.25 in data set [1] (pH 6); -0.993 in data set [1] (pH 6, modulator: ogerin); -0.687 in data set [1] (pH 6.5, modulator: ogerin). In addition, the surface expression score in data set [2] was -1.05.
As for R251_S252insGSG, the cAMP reporter score in data set [1] (pH 5.5) was -1.44; in data set [1] (pH 6), -1.16; in data set [1] (pH 6, modulator: ogerin), -2.39; in data set [1] (pH 6.5, modulator: ogerin), -1.32. Moreover, the surface expression score in data set [2] was -1.92.
On the same counts, the results for W254_E255insGSG are -0.63, -1.02, -2, -0.704 and 1.72.
In the case of V253_W254insGSG, the cAMP reporter score in data set [1] (pH 5.5) is -0.775; in data set [1] (pH 6, modulator: ogerin), -0.65; in data set [1] (pH 6.5, modulator: ogerin) it was 0.318. The surface expression score in data set [2] was 2.07.
In the case of W254_E255insG, the cAMP reporter score in data set [1] (pH 5.5) is -0.664; in data set [1] (pH 6), -0.392; in data set [1] (pH 6, modulator: ogerin), -0.627; in data set [1] (pH 6.5, modulator: ogerin) it was -0.026. Also, in data set [2], the surface expression score came to 3.1.
The matching figures for V253_W254insGS: -1.24, -1.57, -1.68, -1.6 and 0.362.
On the same counts, the results for E255H are -1.34, -0.929, -1.45, -1.04 and -0.223.
The matching figures for E255I: -1.19, -1.13, -1.27, -1.3 and -1.51.
Regarding E255F, the cAMP reporter score was -1.92 in data set [1] (pH 5.5); -0.784 in data set [1] (pH 6); -2.85 in data set [1] (pH 6.5, modulator: ogerin). In addition, in data set [2], the surface expression score is -0.047.
Take E255D: the cAMP reporter score in data set [1] (pH 5.5) was -0.91; in data set [1] (pH 6), -0.412; in data set [1] (pH 6, modulator: ogerin), -0.961; in data set [1] (pH 6.5, modulator: ogerin), -0.647. In addition, in data set [2], the surface expression score amounted to 0.371.
For E255W, the cAMP reporter score in data set [1] (pH 5.5) is -0.834; in data set [1] (pH 6), -0.505; in data set [1] (pH 6, modulator: ogerin), -1.15; in data set [1] (pH 6.5, modulator: ogerin), -0.643. Moreover, the surface expression score in data set [2] is 0.104.
The matching figures for E255P: -0.996, -1.03, -1.49, -1.72 and 0.207.
The matching figures for E255Q: -1.49, -0.853, -1.14, -1.1 and -0.929.
In the case of E255M, the cAMP reporter score in data set [1] (pH 5.5) was -1.32; in data set [1] (pH 6) it was -0.001; in data set [1] (pH 6, modulator: ogerin) it was -0.47; in data set [1] (pH 6.5, modulator: ogerin), -0.872. Also, the surface expression score in data set [2] was -1.19.
In the case of E255V, the cAMP reporter score in data set [1] (pH 5.5) is -1.38; in data set [1] (pH 6) it was -1.03; in data set [1] (pH 6, modulator: ogerin), -1.93; in data set [1] (pH 6.5, modulator: ogerin) it was -0.774. In addition, the surface expression score in data set [2] is -1.13.
Regarding E255L, the cAMP reporter score in data set [1] (pH 5.5) was -1.19; in data set [1] (pH 6), -1.75; in data set [1] (pH 6, modulator: ogerin) it was -1.06; in data set [1] (pH 6.5, modulator: ogerin), -0.888. Besides, the surface expression score in data set [2] is -1.5.
For E255G, the cAMP reporter score is -1.17 in data set [1] (pH 5.5); -0.529 in data set [1] (pH 6); -1.49 in data set [1] (pH 6, modulator: ogerin); -1.13 in data set [1] (pH 6.5, modulator: ogerin). The surface expression score in data set [2] is -0.334.

The record behind these values is the GPR68 mutational scans of Howard et al. (2025).
